According to the BET-seq Pho4 binding data (Le et al. 2018):
The list shows a part of the results. The energies were worked out here from pooled read counts, against the library average; single values are noisy.

target: T1, Pho4 (S. cerevisiae) (UniProt P07270); assay: relative binding free energy (BET-seq); higher = weaker binding; conditions: reference: library average
T1 sequence: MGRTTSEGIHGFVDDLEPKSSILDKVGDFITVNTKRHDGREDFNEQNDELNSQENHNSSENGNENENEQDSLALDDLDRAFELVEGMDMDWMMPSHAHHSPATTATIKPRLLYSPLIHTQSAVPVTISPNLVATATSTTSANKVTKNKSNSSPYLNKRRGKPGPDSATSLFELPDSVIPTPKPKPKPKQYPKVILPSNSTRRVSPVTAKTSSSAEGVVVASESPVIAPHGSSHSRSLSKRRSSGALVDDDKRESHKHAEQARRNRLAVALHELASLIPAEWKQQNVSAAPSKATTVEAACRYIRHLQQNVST

Q: With GTGGCCACGTGGTGTC as the sequence, how does the “relative binding free energy” value read?
A: -0.11 kcal/mol

Q: For GGTATCACGTGGGTAG, which “relative binding free energy” value is on record?
A: -0.04 kcal/mol

Q: TTGGGCACGTGTTGGC was tested. Which “relative binding free energy” value did it give?
A: -0.03 kcal/mol

Q: With TACTGCACGTGGGTAA as the sequence, how does the “relative binding free energy” value read?
A: -0.13 kcal/mol

Q: With AGCGTCACGTGGGGAA as the sequence, how does the “relative binding free energy” value read?
A: -0.05 kcal/mol

Q: Which “relative binding free energy” value does the source give for TAGGGCACGTGGGATG here?
A: -0.2 kcal/mol

Q: How did the “relative binding free energy” value turn out when TCGGGCACGTGGGCTA was run?
A: -0.27 kcal/mol

Q: Which “relative binding free energy” value does the source give for GTAGTCACGTGGTTTG here?
A: 0.13 kcal/mol

Q: Which “relative binding free energy” value does the source give for AGTTTCACGTGGGTTT here?
A: 0.2 kcal/mol

Q: For TATATCACGTGATCTT, which “relative binding free energy” value is on record?
A: 0.02 kcal/mol

Q: For AGATTCACGTGGTCGT, which “relative binding free energy” value is on record?
A: 0.15 kcal/mol

Q: How did the “relative binding free energy” value turn out when GAGGTCACGTGTGCAG was run?
A: 0.03 kcal/mol

Q: How did the “relative binding free energy” value turn out when GGTGGCACGTGGTATC was run?
A: -0.07 kcal/mol

Q: Which “relative binding free energy” value does the source give for GTATTCACGTGTTCTT here?
A: 0.11 kcal/mol

Q: How did the “relative binding free energy” value turn out when TAAGTCACGTGGGTTT was run?
A: -0.02 kcal/mol

Q: Which “relative binding free energy” value does the source give for AGGGCCACGTGGTAGG here?
A: -0.11 kcal/mol

Q: How did the “relative binding free energy” value turn out when TGGGGCACGTGAAATC was run?
A: 0.19 kcal/mol

Q: For GATGGCACGTGTTAGT, which “relative binding free energy” value is on record?
A: -0.09 kcal/mol

Q: For ACATTCACGTGATGGG, which “relative binding free energy” value is on record?
A: 0.31 kcal/mol

Q: Which “relative binding free energy” value does the source give for CAATTCACGTGGGGTA here?
A: 0.21 kcal/mol

Q: TTAAACACGTGATTGT was tested. Which “relative binding free energy” value did it give?
A: 0.05 kcal/mol

Q: For TAAGTCACGTGATTTC, which “relative binding free energy” value is on record?
A: 0.31 kcal/mol

Q: How did the “relative binding free energy” value turn out when CTGTCCACGTGGAGGT was run?
A: 0.02 kcal/mol

Q: With TACGGCACGTGTTTGG as the sequence, how does the “relative binding free energy” value read?
A: -0.14 kcal/mol

Q: With GGGTACACGTGCGGTG as the sequence, how does the “relative binding free energy” value read?
A: 0.05 kcal/mol

Q: GGGAGCACGTGGTATC was tested. Which “relative binding free energy” value did it give?
A: -0.05 kcal/mol

Q: For CAGGTCACGTGGGGTC, which “relative binding free energy” value is on record?
A: 0.04 kcal/mol

Q: With TGTTTCACGTGAGTAA as the sequence, how does the “relative binding free energy” value read?
A: 0.43 kcal/mol

Q: How did the “relative binding free energy” value turn out when TATGGCACGTGTCTGG was run?
A: -0.11 kcal/mol

Q: Which “relative binding free energy” value does the source give for TAGGGCACGTGCGAGG here?
A: -0.18 kcal/mol

Q: Which “relative binding free energy” value does the source give for AGGGTCACGTGTGCCT here?
A: 0.07 kcal/mol

Q: With GGATACACGTGTTTCG as the sequence, how does the “relative binding free energy” value read?
A: 0.03 kcal/mol

Q: For TTTCACACGTGGGGTC, which “relative binding free energy” value is on record?
A: 0.1 kcal/mol

Q: For TTGGTCACGTGAGAAG, which “relative binding free energy” value is on record?
A: 0.37 kcal/mol

Q: With TATTGCACGTGATTGG as the sequence, how does the “relative binding free energy” value read?
A: 0.12 kcal/mol

Q: How did the “relative binding free energy” value turn out when CGGTCCACGTGGGGCG was run?
A: -0.06 kcal/mol

Q: Which “relative binding free energy” value does the source give for GCATACACGTGTGTTT here?
A: 0.11 kcal/mol

Q: CTGTTCACGTGGTGGA was tested. Which “relative binding free energy” value did it give?
A: 0.18 kcal/mol

Q: Which “relative binding free energy” value does the source give for ATTTGCACGTGTGGTC here?
A: 0.22 kcal/mol

Q: With GGTGCCACGTGTATAT as the sequence, how does the “relative binding free energy” value read?
A: 0 kcal/mol

Q: How did the “relative binding free energy” value turn out when GCTGTCACGTGGCAGG was run?
A: 0.23 kcal/mol

Q: For TTATTCACGTGTGCCT, which “relative binding free energy” value is on record?
A: 0.21 kcal/mol

Q: How did the “relative binding free energy” value turn out when ATTAACACGTGTTAGA was run?
A: 0.01 kcal/mol

Q: Which “relative binding free energy” value does the source give for AGAGGCACGTGGTAAT here?
A: -0.22 kcal/mol

Q: GAGTTCACGTGGTTCT was tested. Which “relative binding free energy” value did it give?
A: 0.36 kcal/mol

Q: With GGGATCACGTGTTTGC as the sequence, how does the “relative binding free energy” value read?
A: 0.14 kcal/mol

Q: GTAGTCACGTGGTGCG was tested. Which “relative binding free energy” value did it give?
A: 0.02 kcal/mol

Q: Which “relative binding free energy” value does the source give for GCTTTCACGTGGGATT here?
A: 0.17 kcal/mol

Q: For TGTTTCACGTGAGAAG, which “relative binding free energy” value is on record?
A: 0.33 kcal/mol

Q: With TGGGACACGTGGTCTT as the sequence, how does the “relative binding free energy” value read?
A: -0.02 kcal/mol

Q: TAGTACACGTGTGGTT was tested. Which “relative binding free energy” value did it give?
A: 0.2 kcal/mol

Q: For TTTGGCACGTGGAGTT, which “relative binding free energy” value is on record?
A: -0.07 kcal/mol

Q: GTATTCACGTGGATTG was tested. Which “relative binding free energy” value did it give?
A: 0.34 kcal/mol

Q: How did the “relative binding free energy” value turn out when GCGATCACGTGGGCGG was run?
A: 0 kcal/mol

Q: Which “relative binding free energy” value does the source give for TACTACACGTGGGGTA here?
A: -0.17 kcal/mol

Q: Which “relative binding free energy” value does the source give for CGGGGCACGTGGATAG here?
A: 0.05 kcal/mol

Q: TGCCTCACGTGTGAGT was tested. Which “relative binding free energy” value did it give?
A: 0.36 kcal/mol

Q: With CGCGTCACGTGGGGAT as the sequence, how does the “relative binding free energy” value read?
A: -0.11 kcal/mol

Q: How did the “relative binding free energy” value turn out when TATAACACGTGGTGAG was run?
A: -0.12 kcal/mol

Q: With TTATGCACGTGAGTGT as the sequence, how does the “relative binding free energy” value read?
A: 0.18 kcal/mol

Q: With TGTGTCACGTGGAGTA as the sequence, how does the “relative binding free energy” value read?
A: -0.1 kcal/mol

Q: Which “relative binding free energy” value does the source give for TCTGGCACGTGCGGGT here?
A: -0.18 kcal/mol

Q: For ATTGGCACGTGCGGAG, which “relative binding free energy” value is on record?
A: -0.23 kcal/mol

Q: For TTGGGCACGTGTATGG, which “relative binding free energy” value is on record?
A: 0.01 kcal/mol

Q: How did the “relative binding free energy” value turn out when CAATTCACGTGTGTCT was run?
A: 0.34 kcal/mol

Q: With CGGTTCACGTGTAGGA as the sequence, how does the “relative binding free energy” value read?
A: 0.27 kcal/mol

Q: How did the “relative binding free energy” value turn out when TTTTGCACGTGATAAT was run?
A: 0.1 kcal/mol

Q: For AAAGTCACGTGCGTGT, which “relative binding free energy” value is on record?
A: 0.03 kcal/mol

Q: Which “relative binding free energy” value does the source give for AGGAGCACGTGGTCTT here?
A: -0.15 kcal/mol

Q: Which “relative binding free energy” value does the source give for CAGTGCACGTGTATAT here?
A: 0.03 kcal/mol

Q: With GGTGTCACGTGGTGCA as the sequence, how does the “relative binding free energy” value read?
A: -0.05 kcal/mol

Q: For TATGCCACGTGGGGAG, which “relative binding free energy” value is on record?
A: -0.32 kcal/mol

Q: GAGTGCACGTGTTTGA was tested. Which “relative binding free energy” value did it give?
A: -0.07 kcal/mol

Q: Which “relative binding free energy” value does the source give for TGAGTCACGTGTTGGG here?
A: 0.21 kcal/mol

Q: How did the “relative binding free energy” value turn out when TCGAGCACGTGTTGTG was run?
A: -0.1 kcal/mol

Q: With GGTCACACGTGGGATG as the sequence, how does the “relative binding free energy” value read?
A: 0.1 kcal/mol

Q: For CATGTCACGTGCGTGA, which “relative binding free energy” value is on record?
A: 0.14 kcal/mol

Q: How did the “relative binding free energy” value turn out when GATAGCACGTGAGGTA was run?
A: -0.01 kcal/mol

Q: Which “relative binding free energy” value does the source give for TGAGCCACGTGGAAGT here?
A: 0 kcal/mol

Q: For CGTTTCACGTGTTAAA, which “relative binding free energy” value is on record?
A: 0.23 kcal/mol

Q: TAGAGCACGTGTCGGG was tested. Which “relative binding free energy” value did it give?
A: -0.04 kcal/mol

Q: ACCGGCACGTGGAGTG was tested. Which “relative binding free energy” value did it give?
A: -0.07 kcal/mol

Q: How did the “relative binding free energy” value turn out when AAGTGCACGTGTTAGT was run?
A: -0.08 kcal/mol

Q: With TTTGACACGTGGATCG as the sequence, how does the “relative binding free energy” value read?
A: 0.01 kcal/mol

Q: For TTCATCACGTGGTAGT, which “relative binding free energy” value is on record?
A: 0.12 kcal/mol

Q: For GGCTTCACGTGTAGAG, which “relative binding free energy” value is on record?
A: 0.21 kcal/mol

Q: With TATGTCACGTGAGTGA as the sequence, how does the “relative binding free energy” value read?
A: 0.09 kcal/mol

Q: For GTATCCACGTGATGGG, which “relative binding free energy” value is on record?
A: 0.15 kcal/mol

Q: For ATGTGCACGTGTCATG, which “relative binding free energy” value is on record?
A: -0.05 kcal/mol

Q: Which “relative binding free energy” value does the source give for AATGTCACGTGGGGTT here?
A: 0.03 kcal/mol

Q: How did the “relative binding free energy” value turn out when AAATTCACGTGCTTGG was run?
A: 0.26 kcal/mol

Q: GTATGCACGTGTGTGG was tested. Which “relative binding free energy” value did it give?
A: 0.05 kcal/mol

Q: With GGTTGCACGTGAAATT as the sequence, how does the “relative binding free energy” value read?
A: 0.37 kcal/mol

Q: TATGTCACGTGCAATT was tested. Which “relative binding free energy” value did it give?
A: 0.19 kcal/mol

Q: For GTCTACACGTGTGTGT, which “relative binding free energy” value is on record?
A: 0.21 kcal/mol

Q: Which “relative binding free energy” value does the source give for GTTTGCACGTGGAGAT here?
A: 0.16 kcal/mol

Q: With GTGTGCACGTGTTTAT as the sequence, how does the “relative binding free energy” value read?
A: 0.09 kcal/mol

Q: For TACTACACGTGTGTTG, which “relative binding free energy” value is on record?
A: 0.1 kcal/mol

Q: AGTTACACGTGATTTT was tested. Which “relative binding free energy” value did it give?
A: 0.23 kcal/mol

Q: Which “relative binding free energy” value does the source give for GTCGGCACGTGTGTCG here?
A: 0.02 kcal/mol

Q: How did the “relative binding free energy” value turn out when TAGGGCACGTGAATCG was run?
A: 0.04 kcal/mol

Q: Which “relative binding free energy” value does the source give for ATGGTCACGTGATAAG here?
A: 0.14 kcal/mol

Q: How did the “relative binding free energy” value turn out when GCGAGCACGTGTGAGT was run?
A: -0.04 kcal/mol

Q: Which “relative binding free energy” value does the source give for GGATGCACGTGTCGTG here?
A: 0.12 kcal/mol

Q: How did the “relative binding free energy” value turn out when GGGTGCACGTGGTGAA was run?
A: -0.1 kcal/mol

Q: How did the “relative binding free energy” value turn out when GTGTACACGTGCTCGG was run?
A: 0.06 kcal/mol

Q: Which “relative binding free energy” value does the source give for GTGGTCACGTGAAGTC here?
A: 0.17 kcal/mol

Q: With TGGGACACGTGCGTCG as the sequence, how does the “relative binding free energy” value read?
A: -0.15 kcal/mol

Q: How did the “relative binding free energy” value turn out when ATGACCACGTGTTGGG was run?
A: -0.01 kcal/mol

Q: Which “relative binding free energy” value does the source give for GGGACCACGTGGATGA here?
A: 0.25 kcal/mol

Q: Which “relative binding free energy” value does the source give for TGACGCACGTGTGTTC here?
A: 0.03 kcal/mol

Q: With GGTGTCACGTGTCCGT as the sequence, how does the “relative binding free energy” value read?
A: 0.22 kcal/mol

Q: GGGTTCACGTGTGTTT was tested. Which “relative binding free energy” value did it give?
A: 0.37 kcal/mol

Q: For GGGTTCACGTGCGATG, which “relative binding free energy” value is on record?
A: 0.18 kcal/mol

Q: For CATGACACGTGTTGGT, which “relative binding free energy” value is on record?
A: 0.03 kcal/mol
